The other results are listed elsewhere or left out.
What was measured:
Assay in all cases: glycan array binding signal (z-score within array); higher = stronger binding
Details in all cases: glycan notation: IUPAC condensed, linker removed; mutation: I144G
[1] = target: Neu5Ac(a2-3)Gal
Method in brief: (§1)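 Glycan array binding is given as a within-array Z-score, which can be read as non-binding when negative. The arrays, 3228 of them, came from the Consortium for Functional Glycomics database and were retained only where the protein sequence was available. Z-scores were averaged across arrays of the same protein sequence at different concentrations or buffers and across linkers.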

[2] = target: Neu5Ac(a2-3)Gal(b1-3)GalNAc
Method in brief: as §1

[3] = target: Neu5Ac(a2-3)Gal(b1-3)GalNAc(b1-3)Gal(a1-4)Gal(b1-4)Glc
Method in brief: as §1

[4] = target: Neu5Ac(a2-3)Gal(b1-3)GalNAc(b1-4)Gal(b1-4)Glc
Method in brief: as §1

[5] = target: Neu5Ac(a2-3)Gal(b1-3)GalNAc(b1-4)[Neu5Ac(a2-3)]Gal(b1-4)Glc
Method in brief: as §1

[6] = target: Neu5Ac(a2-3)Gal(b1-3)GalNAc(b1-4)[Neu5Ac(a2-8)Neu5Ac(a2-3)]Gal(b1-4)Glc
Method in brief: as §1

[7] = target: Neu5Ac(a2-3)Gal(b1-3)GalNAc6S
Method in brief: as §1

[8] = target: Neu5Ac(a2-3)Gal(b1-3)GlcNAc
Method in brief: as §1

[9] = target: Neu5Ac(a2-3)Gal(b1-3)GlcNAc(b1-2)Man
Method in brief: as §1

[10] = target: Neu5Ac(a2-3)Gal(b1-3)GlcNAc(b1-2)Man(a1-3)[GlcNAc(b1-4)][Neu5Ac(a2-3)Gal(b1-3)GlcNAc(b1-2)Man(a1-6)]Man(b1-4)GlcNAc(b1-4)GlcNAc
Method in brief: as §1

[11] = target: Neu5Ac(a2-3)Gal(b1-3)GlcNAc(b1-2)Man(a1-3)[Neu5Ac(a2-3)Gal(b1-3)GlcNAc(b1-2)Man(a1-6)]Man(b1-4)GlcNAc(b1-4)GlcNAc
Method in brief: as §1

[12] = target: Neu5Ac(a2-3)Gal(b1-3)GlcNAc(b1-2)[Neu5Ac(a2-3)Gal(b1-3)GlcNAc(b1-4)]Man(a1-6)[Neu5Ac(a2-3)Gal(b1-3)GlcNAc(b1-2)Man(a1-3)]Man(b1-4)GlcNAc(b1-4)GlcNAc
Method in brief: as §1

[13] = target: Neu5Ac(a2-3)Gal(b1-3)GlcNAc(b1-3)Gal(b1-3)GlcNAc
Method in brief: as §1

[14] = target: Neu5Ac(a2-3)Gal(b1-3)GlcNAc(b1-3)Gal(b1-4)GlcNAc
Method in brief: as §1

[15] = target: Neu5Ac(a2-3)Gal(b1-3)GlcNAc(b1-3)GalNAc
Method in brief: as §1

[16] = target: Neu5Ac(a2-3)Gal(b1-3)GlcNAc(b1-6)GalNAc
Method in brief: as §1

[17] = target: Neu5Ac(a2-3)Gal(b1-3)GlcNAc6S
Method in brief: as §1

[18] = target: Neu5Ac(a2-3)Gal(b1-3)[Fuc(a1-4)]GlcNAc
Method in brief: as §1

[19] = target: Neu5Ac(a2-3)Gal(b1-3)[Fuc(a1-4)]GlcNAc(b1-3)Gal(b1-3)[Fuc(a1-4)]GlcNAc
Method in brief: as §1

[20] = target: Neu5Ac(a2-3)Gal(b1-3)[Fuc(a1-4)]GlcNAc(b1-3)Gal(b1-4)[Fuc(a1-3)]GlcNAc
Method in brief: as §1

[21] = target: Neu5Ac(a2-3)Gal(b1-3)[GlcNAc(b1-6)]GalNAc
Method in brief: as §1

[22] = target: Neu5Ac(a2-3)Gal(b1-3)[Neu5Ac(a2-6)]GalNAc
Method in brief: as §1

[23] = target: Neu5Ac(a2-3)Gal(b1-3)[Neu5Ac(a2-6)]GlcNAc(b1-3)[Fuc(a1-3)[Gal(b1-4)]GlcNAc(b1-6)]Gal(b1-4)Glc
Method in brief: as §1

[24] = target: Neu5Ac(a2-3)Gal(b1-3)]Neu5Ac(a2-3)Gal(b1-4)]GlcNAc
Method in brief: as §1

[25] = target: Neu5Ac(a2-3)Gal(b1-4)Glc
Method in brief: as §1

[26] = target: Neu5Ac(a2-3)Gal(b1-4)GlcNAc
Method in brief: as §1

[27] = target: Neu5Ac(a2-3)Gal(b1-4)GlcNAc(b1-2)Man
Method in brief: as §1

[28] = target: Neu5Ac(a2-3)Gal(b1-4)GlcNAc(b1-2)Man(a1-3)[GlcNAc(b1-4)][Neu5Ac(a2-3)Gal(b1-4)GlcNAc(b1-2)Man(a1-6)]Man(b1-4)GlcNAc(b1-4)GlcNAc
Method in brief: as §1

[29] = target: Neu5Ac(a2-3)Gal(b1-4)GlcNAc(b1-2)Man(a1-3)[Neu5Ac(a2-3)Gal(b1-4)GlcNAc(b1-2)Man(a1-6)]Man(b1-4)GlcNAc(b1-4)GlcNAc
Method in brief: as §1

[30] = target: Neu5Ac(a2-3)Gal(b1-4)GlcNAc(b1-2)Man(a1-3)[Neu5Ac(a2-3)Gal(b1-4)GlcNAc(b1-2)Man(a1-6)]Man(b1-4)GlcNAc(b1-4)[Fuc(a1-6)]GlcNAc
Method in brief: as §1

[31] = target: Neu5Ac(a2-3)Gal(b1-4)GlcNAc(b1-2)Man(a1-3)[Neu5Ac(a2-6)Gal(b1-4)GlcNAc(b1-2)Man(a1-6)]Man(b1-4)GlcNAc(b1-4)GlcNAc
Method in brief: as §1

[32] = target: Neu5Ac(a2-3)Gal(b1-4)GlcNAc(b1-2)[Neu5Ac(a2-3)Gal(b1-4)GlcNAc(b1-4)]Man(a1-3)[GlcNAc(b1-4)][Neu5Ac(a2-3)Gal(b1-4)GlcNAc(b1-2)[Neu5Ac(a2-3)Gal(b1-4)GlcNAc(b1-6)]Man(a1-6)]Man(b1-4)GlcNAc(b1-4)GlcNAc
Method in brief: as §1

[33] = target: Neu5Ac(a2-3)Gal(b1-4)GlcNAc(b1-2)[Neu5Ac(a2-3)Gal(b1-4)GlcNAc(b1-4)]Man(a1-3)[GlcNAc(b1-4)][Neu5Ac(a2-3)Gal(b1-4)GlcNAc(b1-4)Man(a1-6)]Man(b1-4)GlcNAc(b1-4)GlcNAc
Method in brief: as §1

[34] = target: Neu5Ac(a2-3)Gal(b1-4)GlcNAc(b1-2)[Neu5Ac(a2-3)Gal(b1-4)GlcNAc(b1-6)]Man(a1-6)[Neu5Ac(a2-3)Gal(b1-4)GlcNAc(b1-2)Man(a1-3)][GlcNAc(b1-4)]Man(b1-4)GlcNAc(b1-4)GlcNAc
Method in brief: as §1

[35] = target: Neu5Ac(a2-3)Gal(b1-4)GlcNAc(b1-3)Gal
Method in brief: as §1

[36] = target: Neu5Ac(a2-3)Gal(b1-4)GlcNAc(b1-3)Gal(b1-3)GlcNAc
Method in brief: as §1

[37] = target: Neu5Ac(a2-3)Gal(b1-4)GlcNAc(b1-3)Gal(b1-4)GlcNAc
Method in brief: as §1

[38] = target: Neu5Ac(a2-3)Gal(b1-4)GlcNAc(b1-3)Gal(b1-4)GlcNAc(b1-2)Man(a1-3)[Neu5Ac(a2-3)Gal(b1-4)GlcNAc(b1-3)Gal(b1-4)GlcNAc(b1-2)Man(a1-6)]Man(b1-4)GlcNAc(b1-4)GlcNAc
Method in brief: as §1

[39] = target: Neu5Ac(a2-3)Gal(b1-4)GlcNAc(b1-3)Gal(b1-4)GlcNAc(b1-3)Gal(b1-4)GlcNAc
Method in brief: as §1

[40] = target: Neu5Ac(a2-3)Gal(b1-4)GlcNAc(b1-3)Gal(b1-4)GlcNAc(b1-3)Gal(b1-4)GlcNAc(b1-2)Man(a1-3)[Neu5Ac(a2-3)Gal(b1-4)GlcNAc(b1-3)Gal(b1-4)GlcNAc(b1-3)Gal(b1-4)GlcNAc(b1-2)Man(a1-6)]GalNAc
Method in brief: as §1

[41] = target: Neu5Ac(a2-3)Gal(b1-4)GlcNAc(b1-3)Gal(b1-4)GlcNAc(b1-3)GalNAc
Method in brief: as §1

[42] = target: Neu5Ac(a2-3)Gal(b1-4)GlcNAc(b1-3)Gal(b1-4)GlcNAc(b1-3)[Neu5Ac(a2-3)Gal(b1-4)GlcNAc(b1-3)Gal(b1-4)GlcNAc(b1-6)]GalNAc
Method in brief: as §1

[43] = target: Neu5Ac(a2-3)Gal(b1-4)GlcNAc(b1-3)Gal(b1-4)GlcNAc(b1-6)[Gal(b1-3)]GalNAc
Method in brief: as §1

[44] = target: Neu5Ac(a2-3)Gal(b1-4)GlcNAc(b1-3)Gal(b1-4)[Fuc(a1-3)]GlcNAc
Method in brief: as §1

[45] = target: Neu5Ac(a2-3)Gal(b1-4)GlcNAc(b1-3)GalNAc
Method in brief: as §1

B1: rAAL-I144G (Agrocybe aegerita), Q6WY08 (protein)
chain: MQGVNIYNISAGTSVDLAAPVTTGDIVTFFSSALNLNAGAGNPNNTTLNLFAENGAYLLHIAFRLQENVIIFNSRQPDGPWLVEQRVSDVANQFAGIDGKAMVTVFDHGDKYQVVINEKTVIQYTKQISGLTLSLSYNATEETSGFSTVVEAVTYTGLALEHHHHHH
For B1, the “glycan array binding signal (z-score)” value [1] was -0.144, the “glycan array binding signal (z-score)” value [2] was 1.67 and the “glycan array binding signal (z-score)” value [3] was 1.35. The “glycan array binding signal (z-score)” value [4] was -0.123, the “glycan array binding signal (z-score)” value [5] was 1.33 and the “glycan array binding signal (z-score)” value [6] was -0.121. The “glycan array binding signal (z-score)” value [7] was 4.09, the “glycan array binding signal (z-score)” value [8] was -0.088 and the “glycan array binding signal (z-score)” value [9] was -0.183. The “glycan array binding signal (z-score)” value [10] was -0.134, the “glycan array binding signal (z-score)” value [11] was -0.126 and the “glycan array binding signal (z-score)” value [12] was -0.062. For the same binder, the “glycan array binding signal (z-score)” value [13] was -0.183, the “glycan array binding signal (z-score)” value [14] was -0.144 and the “glycan array binding signal (z-score)” value [15] was -0.138. The “glycan array binding signal (z-score)” value [16] was -0.115, the “glycan array binding signal (z-score)” value [17] was -0.125 and the “glycan array binding signal (z-score)” value [18] was -0.184. For the same binder, the “glycan array binding signal (z-score)” value [19] was -0.109, the “glycan array binding signal (z-score)” value [20] was -0.111 and the “glycan array binding signal (z-score)” value [21] was 1.74. The “glycan array binding signal (z-score)” value [22] was -0.08, the “glycan array binding signal (z-score)” value [23] was -0.139 and the “glycan array binding signal (z-score)” value [24] was -0.06. The “glycan array binding signal (z-score)” value [25] was -0.131, the “glycan array binding signal (z-score)” value [26] was -0.113 and the “glycan array binding signal (z-score)” value [27] was -0.069. The “glycan array binding signal (z-score)” value [28] was 1.63, the “glycan array binding signal (z-score)” value [29] was 0.214 and the “glycan array binding signal (z-score)” value [30] was 0.102. For the same binder, the “glycan array binding signal (z-score)” value [31] was -0.038, the “glycan array binding signal (z-score)” value [32] was 0.078 and the “glycan array binding signal (z-score)” value [33] was 0.232. The “glycan array binding signal (z-score)” value [34] was -0.073, the “glycan array binding signal (z-score)” value [35] was -0.059 and the “glycan array binding signal (z-score)” value [36] was -0.12. The “glycan array binding signal (z-score)” value [37] was -0.053, the “glycan array binding signal (z-score)” value [38] was -0.204 and the “glycan array binding signal (z-score)” value [39] was -0.072. The “glycan array binding signal (z-score)” value [40] was -0.08, the “glycan array binding signal (z-score)” value [41] was -0.197 and the “glycan array binding signal (z-score)” value [42] was -0.092. For the same binder, the “glycan array binding signal (z-score)” value [43] was -0.181, the “glycan array binding signal (z-score)” value [44] was -0.208 and the “glycan array binding signal (z-score)” value [45] was -0.117.

Source: the supplement of paper PMC8728848
